From publication PMC4336329 (PLoS ONE, 2015)
Hit rate of the full screen: of about 310,000 compounds, about 14,000 (4.5%) showed an effect of 50% or more. Effects have a minus sign here. Some of the results follow.

target: human ether-à-go-go-related gene (hERG) potassium channel (human, UniProt Q12809); assay: primary screen, population patch clamp on CHO cells stably expressing hERG
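Further: peak tail current of the secondary pulse compared with the same well before compound.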

Chain of human ether-à-go-go-related gene (hERG) potassium channel (Q12809 whole entry, looked up): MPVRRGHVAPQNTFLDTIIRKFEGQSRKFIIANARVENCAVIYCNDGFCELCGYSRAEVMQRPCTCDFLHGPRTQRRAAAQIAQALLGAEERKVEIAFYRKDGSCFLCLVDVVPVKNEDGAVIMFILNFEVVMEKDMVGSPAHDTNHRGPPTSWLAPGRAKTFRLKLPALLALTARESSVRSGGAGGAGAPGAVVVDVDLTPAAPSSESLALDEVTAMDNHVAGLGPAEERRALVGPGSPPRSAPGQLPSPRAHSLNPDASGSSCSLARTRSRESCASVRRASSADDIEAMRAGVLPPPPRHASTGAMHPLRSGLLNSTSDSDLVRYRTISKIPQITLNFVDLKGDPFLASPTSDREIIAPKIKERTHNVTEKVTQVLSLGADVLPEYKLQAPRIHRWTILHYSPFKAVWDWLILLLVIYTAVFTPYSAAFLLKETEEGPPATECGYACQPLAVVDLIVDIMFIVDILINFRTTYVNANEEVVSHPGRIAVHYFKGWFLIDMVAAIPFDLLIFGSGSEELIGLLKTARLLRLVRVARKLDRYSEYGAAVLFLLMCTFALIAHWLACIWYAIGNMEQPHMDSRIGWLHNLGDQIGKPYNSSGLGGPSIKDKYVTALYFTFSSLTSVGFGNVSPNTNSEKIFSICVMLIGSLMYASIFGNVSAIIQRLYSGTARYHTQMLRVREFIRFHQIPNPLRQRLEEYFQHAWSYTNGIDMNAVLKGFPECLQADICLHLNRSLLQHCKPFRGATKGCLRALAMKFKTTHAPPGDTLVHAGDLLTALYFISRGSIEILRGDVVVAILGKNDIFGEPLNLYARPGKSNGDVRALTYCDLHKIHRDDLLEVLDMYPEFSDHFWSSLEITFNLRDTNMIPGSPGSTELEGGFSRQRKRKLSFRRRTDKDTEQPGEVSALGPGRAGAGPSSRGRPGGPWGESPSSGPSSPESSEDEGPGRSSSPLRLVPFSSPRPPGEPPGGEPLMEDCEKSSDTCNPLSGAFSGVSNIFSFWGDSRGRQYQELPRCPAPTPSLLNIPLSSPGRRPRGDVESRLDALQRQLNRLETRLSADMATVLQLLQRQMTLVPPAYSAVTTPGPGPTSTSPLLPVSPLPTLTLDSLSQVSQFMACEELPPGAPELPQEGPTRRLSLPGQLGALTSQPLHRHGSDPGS

Row | SMILES | hERG current change (%, negative = inhibition) at 10uM
1 | COc1cc(NC(=O)C2CCCO2)c(OC)cc1NC(=O)c1ccccc1 (centres unmarked) | 8.17%
2 | CCOc1cc(C)c(C(C)C)cc1S(=O)(=O)NCc1ccccn1 | 0.243%
3 | CC(=O)c1ccc(NC(=O)c2ccc(C)c(Br)c2)cc1 | 10.1%
4 | Cc1c(-c2ccccc2)cnc2c(C)cccc12 | 22%
5 | CCC(C)NC(=O)C1CCN(S(=O)(=O)c2ccc(OC)cc2)CC1 (centres unmarked) | 19.1%
6 | COc1ccc(Cl)cc1S(=O)(=O)N1CCCC(C(=O)N2CCOCC2)C1 (centres unmarked) | -69.4%
7 | O=C(NC12CC3CC(CC(C3)C1)C2)N1CCN(c2ncccn2)CC1 | 25.5%
8 | COc1ccc(N2Cc3ccc(C(=O)N/N=C\c4ccc(O)cc4O)cc3C2)cc1 | 23.4%
9 | CCOC(=O)c1[nH]c(C)c(C(=O)N2CCc3ccccc32)c1C | -12.6%
10 | CCOC(=O)c1sc(NC(=O)CSc2ncn[nH]2)c(C#N)c1C | -12.3%
11 | COc1ccc(C(=O)OCC(=O)NC23CC4CC(CC(C4)C2)C3)c(OC)c1OC | -37.2%
12 | CC(=O)c1ccc(N2CCN(C(=S)Nc3ccccc3)CC2)cc1 | -1.51%
13 | CC(C)(C)c1ccc(NC(=O)COC(=O)c2ccc3ncsc3c2)cc1 | 5.01%
14 | CC(C)c1c(C(=O)N/N=C/c2ccc(-c3ccccc3)cc2)nnn1-c1nonc1N | 26.6%
15 | C/C=C/c1ccc(OCCCCOc2ccc(OC)cc2)c(OC)c1 | -7.09%
16 | COc1cccc(CNC(=O)c2ccccc2NC(=O)C2=C(C)OCCS2)c1 | -0.591%
17 | Cc1oc2ccc(NS(=O)(=O)c3ccc(C(C)(C)C)cc3)cc2c1C(=O)Nc1ccccc1 | 1.72%
18 | CCC(=O)c1ccc(N2CCN(S(=O)(=O)c3ccccc3)CC2)c(F)c1 | 11.7%
19 | COCc1c(C(=O)N2CCN(c3ccc(C(F)(F)F)cn3)CC2)oc2ccccc12 | -23.7%
20 | CCSc1ccccc1C(=O)Nc1nc2ccccc2c(=O)[nH]1 | 17.7%
21 | N#Cc1ccc(NC(=O)c2cc(-c3cccs3)on2)cc1 | 21.8%
22 | Cc1nn(-c2ccc(Cl)cc2)c2sc(C(=O)N3CCN(c4ccccn4)CC3)cc12 | 17.2%
23 | O=C(CCc1nnc(Cc2c[nH]c3ccccc23)o1)NC(C1CC1)C1CC1 | 13.5%

Row | SMILES | hERG current change (%, negative = inhibition) at 10uM
24 | NC(=O)CS(=O)(=O)c1nc2ccccc2n1Cc1ccccn1 | 12.1%
25 | C=CC[n+]1c(-c2ccc(OCC)cc2)csc1NNC(=O)Nc1ccccc1.[Br-] | 9.29%
26 | CC(=O)N1CCc2cc(S(=O)(=O)NCCCOC(C)C)ccc21 | 13.2%
27 | CC(=O)c1cn(CC(=O)NCc2ccc3c(c2)OCO3)c2ccccc12 | -3.61%
28 | CC1Sc2ccc(S(=O)(=O)CCC(=O)NC(C)c3ccccc3)cc2NC1=O (centres unmarked) | 10.9%
29 | CCC(C(=O)NCc1ccco1)N(C(=O)CNS(=O)(=O)c1ccccc1)c1ccc(OC)cc1 (centres unmarked) | -7.78%
30 | CC(=O)Nc1ccc(-c2csc(NC(=O)C3=COCCO3)n2)cc1 | -13.3%
31 | Fc1ccc(COc2ccccc2-c2ccnc3ncnn23)cc1 | -6.51%
32 | COc1ccc(-c2noc(CNC(=O)CCN3C(=O)[C@H]4CC=CC[C@H]4C3=O)n2)cc1 | 5.29%
33 | Cl.O=C(NCCCN1CCOCC1)c1cccnc1 | 8.8%
34 | COc1ccc(N2CCN(C(CNC(=O)COc3ccccc3)c3ccco3)CC2)cc1 (centres unmarked) | -67%
35 | CCC(=O)Nc1nc2ccccc2n1Cc1ccc(C)cc1 | 14%
36 | CCC(C(=O)OC)n1cnc2scc(-c3ccc(C)cc3)c2c1=O (centres unmarked) | 4.69%
37 | O=S(=O)(NCC1CCCO1)c1ccc(Cl)c(C(F)(F)F)c1 (centres unmarked) | -10.1%
38 | O=C(Cc1n[nH]c(=O)c2ccccc12)Nc1ccc(-c2nnc3n2CCCCC3)cc1 | -4.77%
39 | COc1ccc(S(N)(=O)=O)cc1C(=O)OCCCOC(=O)c1cc(S(N)(=O)=O)ccc1OC | 4.29%
40 | CCCC(=O)NCc1nc2ccccc2n1C | -2.04%
41 | COc1ccc(/C=N/c2sc3c(c2C#N)CCN(Cc2ccccc2)C3)c(O)c1 | 10.2%
42 | COc1ccc(Cl)cc1C(=O)NNC(=O)c1cccc([N+](=O)[O-])c1 | 2.28%
43 | NC(=O)C1CCN(CC(=O)Nc2ccccc2Sc2ccc(Cl)cc2)CC1 | -53.7%
44 | CC(C)(CNS(=O)(=O)c1ccc(F)cc1)CNS(=O)(=O)c1ccc(F)cc1 | 2.69%
45 | COc1ccccc1N(CC(O)Cn1ccnc1C)S(=O)(=O)c1ccccc1 (centres unmarked) | 10.1%
46 | CCc1ccc2[nH]c(=O)c(CN(Cc3ccccc3OC)C(=O)Nc3ccccc3OC)cc2c1 | 3.47%

Row | SMILES | hERG current change (%, negative = inhibition) at 10uM
47 | COC(=O)c1oc2c(c1C)C1(CCC2)SCCS1 | -20%
48 | COc1ccc(N(C(=O)CNC(=O)c2ccco2)C(C(=O)NCC2CCCO2)c2ccccc2)cc1 (centres unmarked) | 16%
49 | COc1ccc(OCc2nc(C#N)c(NCCCn3ccnc3)o2)cc1 | -43.4%
50 | CN1CCN(C(=O)COc2ccc(C(C)(C)C)cc2Br)CC1 | -27.8%
51 | O=C(O)CSc1c2c(nc3cc(C(=O)N4CCOCC4)ccc13)CCCC2 | 6.31%
52 | O=C(Nc1ccc(Cl)cc1)N1CC=CCC1 | 12.3%
53 | O=[N+]([O-])C(/C=C(\Cl)[N+](=O)[O-])=C1N(Cc2ccc(Cl)nc2)CCN1Cc1ccc(Cl)nc1 | -13%
54 | Cc1ccc(-n2nc(C)c3c2OC(N)=C(C#N)C3c2ccc(C)o2)cc1 (centres unmarked) | 6.4%
55 | CCN(CC)CCCC(C)NC(=O)c1cc(=O)c2ccccc2o1.Cl (centres unmarked) | 0.954%
56 | Cc1sc2ncnc(SCC#N)c2c1C | 2.88%
57 | N/C(=N\OC(=O)c1cccc(Cl)c1)c1ccncc1 | -19.4%
58 | Cc1nc2cc(NC(=O)c3cccc(S(C)(=O)=O)c3)ccc2o1 | 11.9%
59 | N#Cc1ccc(C(=O)NC2CCCCCCC2)cc1 | -30.8%
60 | COc1cc(/C=C2\C(=N)N3N=CSC3=NC2=O)ccc1OS(=O)(=O)c1ccccc1[N+](=O)[O-] | -2.22%
61 | CCOc1cc(/C=C2/C(=O)ON=C2C)ccc1O | 9.1%
62 | C=CC1CN(CC(=O)OC)S(=O)(=O)c2ccccc21 (centres unmarked) | -1.58%
63 | COc1nc(C)cc(C)c1S(=O)(=O)c1ccccc1 | 20.7%
64 | CCN(CC)c1ccc(N=C2C(=O)Nc3ccccc32)cc1 | -46.7%
65 | CC(Sc1nc(N)cc(N)n1)C(=O)Nc1ccc(N2CCOCC2)cc1 (centres unmarked) | 17.8%
66 | C=CCOC(=O)C1=C(C)OC(N)=C(C#N)C1c1ccoc1 (centres unmarked) | 10.7%
67 | Cn1ccnc1SCC(=O)Nc1cccc2ccccc12 | -4.5%
68 | Oc1c(Cl)cc(Cl)cc1/C=N/c1ncn[nH]1 | 12.4%
69 | COc1ccc(-c2ccc(SCC(=O)NCc3ccc4c(c3)OCO4)nn2)cc1OC | -1.22%

Row | SMILES | hERG current change (%, negative = inhibition) at 10uM
70 | CCOc1cc(CNCc2cccs2)cc(Br)c1OCC.Cl | -4.03%
71 | Cc1cccc2cc(CN(Cc3nnnn3Cc3ccco3)C3CCCC3)c3nnnn3c12 | 7.99%
72 | Cl.O=S(=O)(NCCN1CCOCC1)c1cccc(C(F)(F)F)c1 | 5.32%
73 | O=C(NCc1ccc(F)cc1)c1cccs1 | 9.12%
74 | CCCC[n+]1c(C)sc2cc(OC)ccc21.[I-] | 20%
75 | Cc1ccnc(NC(=O)CCC(=O)N(CC(=O)NC2CCCCC2)c2ccc3c(c2)OCO3)c1 | 11.5%
76 | COC(=O)C1CCCN1C(=O)COc1ccc(Br)cc1Cl (centres unmarked) | 9.21%
77 | COc1ccc(S(=O)(=O)N(C)CC(=O)Nc2ccc3c(c2)OCCO3)cc1OC | 11.1%
78 | O=C(CSc1nc2ccc(Cl)cc2[nH]1)NC1CCCC1 | 13.5%
79 | COCCCn1c(SCc2cccc(C(F)(F)F)c2)nc2cc(OC)c(OC)cc2c1=N | 9.07%
80 | COc1cc(OC)c(C(=O)NCC(c2cccs2)N(C)C)cc1OC (centres unmarked) | 13.7%
81 | COc1ccc(/C=N/N=C(/N)N[N+](=O)[O-])c(OC)c1 | -7.87%
82 | C=CCNc1nc(C(=O)OCC(=O)c2cccc(Br)c2)cs1 | -16.3%
83 | Cc1ccc(S[C@@H](CCN2CC[C@H](C)CCC2=O)c2ccccc2)cc1 | -15.4%
84 | CC(=NCc1cccnc1)c1c(O)n(Cc2ccccc2)c(=O)[nH]c1=O | -44.9%
85 | CCOC(=O)N1CCC(NC(=O)CSCc2nc(-c3ccccc3Cl)oc2C)CC1 | -19.5%
86 | Cc1sc(NC(=O)/C=C/c2ccco2)c(C(=O)O)c1C | 2.85%
87 | Cc1ccc(NC(=O)C2CCN(C(=O)NC3CCCCC3)CC2)c(C)c1 | -4.41%
88 | O=C(NCc1ccccc1)c1c[nH]c2ccccc2c1=O | 10.6%
89 | O=C(NCCCN1CCOCC1)c1cccc(S(=O)(=O)N2CCOCC2)c1 | 8.97%
